{"source": "the supplement of paper PMC8728848", "binders": {"B1": {"name": "Sebin2 (Coprinopsis cinerea), A8PE78 (protein)", "chain": "MTTPFYAYCHNVQDDNTWRLGLVFANRSTADEWWRAISEATSSIPITKSITRVTPQYYTHDIRVWNMYNFFVDGNIKSISDKFRGRLFITLEYDRSGRGVSVFPPLHIVDHVSGNWYYIRSKTAPHLFWFYDETRNAIYASKEKRTRFKVSIRNPSPQTPKDAIMINSDDVVIHIKESLYVGVDSYLGHIIPTRAYRTFKFGELEGGAIAGIEVAENAEERCSSTFDGASLYFVGPDSSSPGEPWELV"}}, "assay_in_all_cases": "glycan array binding signal (z-score within array); higher = stronger binding", "conditions_in_all_cases": "glycan notation: IUPAC condensed, linker removed", "key": {"[1]": {"target": "Gal(b1-4)GlcNAc(b1-2)Man(a1-3)[Gal(b1-4)GlcNAc(b1-2)Man(a1-6)]Man(b1-4)GlcNAc(b1-4)GlcNAc", "in_short": "(§1)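 Arrays were curated from the Consortium for Functional Glycomics database, 3228 in total, and kept only where the protein sequence was available. Binding is expressed as a within-array Z-score. This score was averaged across arrays of the same protein sequence at different concentrations or buffers and across linkers, and negative values can be read as non-binding.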"}, "[2]": {"target": "Gal(b1-4)GlcNAc(b1-2)Man(a1-3)[Gal(b1-4)GlcNAc(b1-2)Man(a1-6)]Man(b1-4)GlcNAc(b1-4)[Fuc(a1-6)]GlcNAc", "in_short": "as §1"}, "[3]": {"target": "Gal(b1-4)GlcNAc(b1-2)Man(a1-3)[Gal(b1-4)GlcNAc(b1-2)Man(a1-6)][Gal(b1-4)GlcNAc(b1-4)]Man(b1-4)GlcNAc(b1-4)[Fuc(a1-6)]GlcNAc", "in_short": "as §1"}, "[4]": {"target": "Gal(b1-4)GlcNAc(b1-2)Man(a1-3)[Gal(b1-4)GlcNAc(b1-2)Man(a1-6)][GlcNAc(b1-4)]Man(b1-4)GlcNAc(b1-4)[Fuc(a1-6)]GlcNAc", "in_short": "as §1"}, "[5]": {"target": "Gal(b1-4)GlcNAc(b1-2)Man(a1-3)[GlcNAc(b1-2)Man(a1-6)]Man(b1-4)GlcNAc(b1-4)GlcNAc", "in_short": "as §1"}, "[6]": {"target": "Gal(b1-4)GlcNAc(b1-2)Man(a1-3)[GlcNAc(b1-4)][Gal(b1-4)GlcNAc(b1-2)Man(a1-6)]Man(b1-4)GlcNAc(b1-4)GlcNAc", "in_short": "as §1"}, "[7]": {"target": "Gal(b1-4)GlcNAc(b1-2)Man(a1-3)[Man(a1-6)]Man(b1-4)GlcNAc(b1-4)GlcNAc", "in_short": "as §1"}, "[8]": {"target": "Gal(b1-4)GlcNAc(b1-2)Man(a1-6)Man(b1-4)GlcNAc(b1-4)GlcNAc", "in_short": "as §1"}, "[9]": {"target": "Gal(b1-4)GlcNAc(b1-2)Man(a1-6)[GlcNAc(b1-2)Man(a1-3)]Man(b1-4)GlcNAc(b1-4)GlcNAc", "in_short": "as §1"}, "[10]": {"target": "Gal(b1-4)GlcNAc(b1-2)Man(a1-6)[Man(a1-3)]Man(b1-4)GlcNAc(b1-4)GlcNAc", "in_short": "as §1"}, "[11]": {"target": "Gal(b1-4)GlcNAc(b1-2)[Gal(b1-4)GlcNAc(b1-4)]Man(a1-3)[Gal(b1-4)GlcNAc(b1-2)Man(a1-6)]Man(b1-4)GlcNAc(b1-4)GlcNAc", "in_short": "as §1"}, "[12]": {"target": "Gal(b1-4)GlcNAc(b1-2)[Gal(b1-4)GlcNAc(b1-4)]Man(a1-3)[Gal(b1-4)GlcNAc(b1-2)[Gal(b1-4)GlcNAc(b1-6)]Man(a1-6)]Man(b1-4)GlcNAc(b1-4)GlcNAc", "in_short": "as §1"}, "[13]": {"target": "Gal(b1-4)GlcNAc(b1-2)[Gal(b1-4)GlcNAc(b1-4)]Man(a1-3)[GlcNAc(b1-4)][Gal(b1-4)GlcNAc(b1-2)Man(a1-6)]Man(b1-4)GlcNAc(b1-4)GlcNAc", "in_short": "as §1"}, "[14]": {"target": "Gal(b1-4)GlcNAc(b1-2)[Gal(b1-4)GlcNAc(b1-4)]Man(a1-3)[GlcNAc(b1-4)][Gal(b1-4)GlcNAc(b1-2)[Gal(b1-4)GlcNAc(b1-6)]Man(a1-6)]Man(b1-4)GlcNAc(b1-4)GlcNAc", "in_short": "as §1"}, "[15]": {"target": "Gal(b1-4)GlcNAc(b1-2)[Gal(b1-4)GlcNAc(b1-6)]Man(a1-6)[Gal(b1-4)GlcNAc(b1-2)Man(a1-3)]Man(b1-4)GlcNAc(b1-4)GlcNAc", "in_short": "as §1"}, "[16]": {"target": "Gal(b1-4)GlcNAc(b1-2)[Gal(b1-4)GlcNAc(b1-6)]Man(a1-6)[Gal(b1-4)GlcNAc(b1-2)Man(a1-3)]Man(b1-4)GlcNAc(b1-4)[Fuc(a1-6)]GlcNAc", "in_short": "as §1"}, "[17]": {"target": "Gal(b1-4)GlcNAc(b1-2)[Gal(b1-4)GlcNAc(b1-6)]Man(a1-6)[GlcNAc(b1-4)][Gal(b1-4)GlcNAc(b1-2)Man(a1-3)]Man(b1-4)GlcNAc(b1-4)GlcNAc", "in_short": "as §1"}, "[18]": {"target": "Gal(b1-4)GlcNAc(b1-2)[Gal(b1-4)GlcNAc(b1-6)]Man(a1-6)[GlcNAc(b1-4)][Gal(b1-4)GlcNAc(b1-2)[Gal(b1-4)GlcNAc(b1-4)]Man(a1-3)]Man(b1-4)GlcNAc(b1-4)[Fuc(a1-6)]GlcNAc", "in_short": "as §1"}, "[19]": {"target": "Gal(b1-4)GlcNAc(b1-3)Gal(b1-3)GalNAc", "in_short": "as §1"}, "[20]": {"target": "Gal(b1-4)GlcNAc(b1-3)Gal(b1-3)GlcNAc", "in_short": "as §1"}, "[21]": {"target": "Gal(b1-4)GlcNAc(b1-3)Gal(b1-4)Glc", "in_short": "as §1"}, "[22]": {"target": "Gal(b1-4)GlcNAc(b1-3)Gal(b1-4)GlcNAc", "in_short": "as §1"}, "[23]": {"target": "Gal(b1-4)GlcNAc(b1-3)Gal(b1-4)GlcNAc(b1-2)Man(a1-3)[Gal(b1-4)GlcNAc(b1-3)Gal(b1-4)GlcNAc(b1-2)Man(a1-6)]Man(b1-4)GlcNAc(b1-4)GlcNAc", "in_short": "as §1"}}, "note": "The other results are listed elsewhere or left out."}
{"binder": "B1", "values": [{"measurement": "glycan array binding signal (z-score)", "setting": "[1]", "result": 0.112}, {"measurement": "glycan array binding signal (z-score)", "setting": "[2]", "result": 0.034}, {"measurement": "glycan array binding signal (z-score)", "setting": "[3]", "result": -0.619}, {"measurement": "glycan array binding signal (z-score)", "setting": "[4]", "result": -0.527}, {"measurement": "glycan array binding signal (z-score)", "setting": "[5]", "result": -0.033}, {"measurement": "glycan array binding signal (z-score)", "setting": "[6]", "result": -0.154}, {"measurement": "glycan array binding signal (z-score)", "setting": "[7]", "result": -0.101}, {"measurement": "glycan array binding signal (z-score)", "setting": "[8]", "result": -0.071}, {"measurement": "glycan array binding signal (z-score)", "setting": "[9]", "result": -0.185}, {"measurement": "glycan array binding signal (z-score)", "setting": "[10]", "result": 0.215}, {"measurement": "glycan array binding signal (z-score)", "setting": "[11]", "result": -0.132}, {"measurement": "glycan array binding signal (z-score)", "setting": "[12]", "result": -0.409}, {"measurement": "glycan array binding signal (z-score)", "setting": "[13]", "result": -0.1}, {"measurement": "glycan array binding signal (z-score)", "setting": "[14]", "result": -0.138}, {"measurement": "glycan array binding signal (z-score)", "setting": "[15]", "result": -0.369}, {"measurement": "glycan array binding signal (z-score)", "setting": "[16]", "result": -0.177}, {"measurement": "glycan array binding signal (z-score)", "setting": "[17]", "result": -0.007}, {"measurement": "glycan array binding signal (z-score)", "setting": "[18]", "result": -0.526}, {"measurement": "glycan array binding signal (z-score)", "setting": "[19]", "result": -0.178}, {"measurement": "glycan array binding signal (z-score)", "setting": "[20]", "result": -0.143}, {"measurement": "glycan array binding signal (z-score)", "setting": "[21]", "result": -0.052}, {"measurement": "glycan array binding signal (z-score)", "setting": "[22]", "result": -0.478}, {"measurement": "glycan array binding signal (z-score)", "setting": "[23]", "result": -0.122}]}
